How the values were obtained:
IIB = target: T1, IIB (UniProt P31994 46-217, limits assumed); assay: BLI (Octet HTX); His-tagged FcRIIB loaded on anti-penta-His (HIS1K) biosensor, TMMP at 300 and 100 nM; noisy traces, response at most about 0.02 nm, no fall in the dissociation step [Cont.]
T1 construct: also called FcRIIB; His-tagged receptor; not shown: His tag
T1 sequence (looked up): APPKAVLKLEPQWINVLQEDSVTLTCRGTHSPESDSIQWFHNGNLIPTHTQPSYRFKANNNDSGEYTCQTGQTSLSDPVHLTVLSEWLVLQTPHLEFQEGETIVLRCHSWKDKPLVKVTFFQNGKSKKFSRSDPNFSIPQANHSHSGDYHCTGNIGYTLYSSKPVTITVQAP

RIIA = target: T2, RIIA (UniProt P12318 36-218, limits assumed); assay: BLI (Octet HTX); His-tagged FcRIIA loaded on anti-penta-His (HIS1K) biosensor, TMMP at 300, 100 and 33.3 nM; noisy traces, response at most about 0.035 nm [Cont.]
T2 construct: also called FcRIIA; His-tagged receptor; not shown: His tag
T2 sequence (looked up): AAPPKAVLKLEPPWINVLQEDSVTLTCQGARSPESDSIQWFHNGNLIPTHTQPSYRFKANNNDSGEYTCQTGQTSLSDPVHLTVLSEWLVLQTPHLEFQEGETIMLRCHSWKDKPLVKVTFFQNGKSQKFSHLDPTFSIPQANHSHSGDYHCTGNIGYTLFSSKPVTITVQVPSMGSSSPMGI

B1: “3425+3529” TMPP (T-cell modulatory multimeric polypeptide comprising polypeptide 3425 and polypeptide 3529) (Fc fusion)
MHC heavy: GSHSMRYFSTSVSRPGRGEPRFIAVGYVDDTQFVRFDSDAASQRMEPRAPWIEQEGPEYWDEETGKVKAHSQTDRENLRIALRCYNQSEAGSHTLQMMFGCDVGSDGRFLRGYHQYAYDGKDYIALKEDLRSWTAADMAAQITKRKWEAAHVAEQQRAYLEGTCVDGLRRYLENGKETLQRTDPPKTHMTHHPISDHEATLRCWALGFYPAEITLTWQRDGEDQTQDTELVETRPCGDGTFQKWAAVVVPSGEEQRYTCHVQHEGLPKPLTLRWEAAAGG[skipping human IgG1 Fc with changes]GGGGSGGGGSGGGGS[skipping about 150 residues]GGGGSGGGGSGGGGSGGGGS[skipping about 150 residues]
b2m: NYMNLGATLGCGGSGGGGSGGGGS[skipping about 100 residues]
B1 was tested. Which Kd (IIB) did it give?
The Kd was 5720 nM.

What about the Kd (RIIA) of the same binder?
The Kd was 156 nM.
